Results on 82 compounds are retold here after ChEMBL document CHEMBL1201862, “PubChem BioAssay data set” (2004).

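The compound was tested at five concentrations on cells cultured in 96-well plates, with a 48-hour exposure period. Abbreviation: GI50, concentration required for 50% inhibition of growth.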 Calls of active or inactive are those of the source. Rule as the data show it: active = GI50 up to about 1.1 µM and inactive = higher.

The experiment has as its system NCI-H322M. Kind of experiment: inhibition of tumour cell growth, NCI panel, 48 h.
On to `NCCNc1nc(N2CCCC2)c2nc(Cl)c(NCc3ccccc3)nc2n1`, for which the GI50 was inactive: 2.48 µM. `COc1ccccc1NC(=O)C1=C(C)NC(C)=C(C(=O)Nc2ccccc2OC)C1c1ccccc1Cl`: the GI50 was inactive: > 100 µM.

With `C(CCc1nnc2c(n1)CCCC2)Cc1nnc2c(n1)CCCC2`, the GI50 was inactive: > 100 µM. For `O=C1CCC(NC(=O)c2ccccc2)C(=O)N1` (configuration not stated) the value was inactive: > 100 µM; for `CN(C)CCSS(=O)(=O)O`, inactive: > 100 µM. For `CN(C(=O)Cc1cccc(N=C=S)c1)[C@H]1CCCC[C@@H]1N1CCCC1` the value was inactive: 17.3 µM; for `Cn1c2ccccc2c2c3c(c4c5ccccc5n(C5OC(CO)C(O)C(O)C5O)c4c21)C(=O)OC3=O` (configuration not stated), inactive: > 100 µM; for `CC1(C)O[C@H]([C@H](O)c2nnc3ccc(Cl)nn23)[C@@H]([C@H]2COC(C)(C)O2)O1`, inactive: > 100 µM. For `COc1ccc(/C=N/n2c(-c3ccccc3)n[nH]c2=O)cc1` the value was inactive: > 100 µM; for `CCO/C([O-])=C(/C=O)[n+]1c(C)n(C)c2ccccc21`, inactive: > 100 µM; for `C=C1CC(C)(c2ccc(Nc3nc4ccccc4c4occc34)cc2)OC1=O` (configuration not stated), inactive: 18.8 µM. Regarding `N#C[C@H](c1nc2ccccc2s1)c1nc2ccccc2nc1Cl`, the GI50 was inactive: > 100 µM. For `CCOC(=O)C1=NN(c2ccc(Cl)cc2)C2=CC(C)=NN(C)C(=S)N21` the value was inactive: > 100 µM; for `Cc1ccc(NC(=O)C2C(=O)N(c3ccc(C)c(C)c3)C(=O)/C2=N\NC(N)=O)cc1C` (configuration not stated), inactive: > 100 µM; for `COc1ccc(C(C2C(=O)N(C)C(=O)N(C)C2=O)C(F)(F)C(=O)N(C)C)cc1` (configuration not stated), inactive: > 100 µM. For `O=C(/C=C\c1ccc(Cl)cc1Cl)c1cccs1` the value was inactive: 33.2 µM; for `CCOC(=O)CCC(NC(=O)c1ccc(OCc2ccc3nc(-c4ccccc4)c(Cl)nc3c2)cc1)C(=O)OCC` (configuration not stated), inactive: > 100 µM; for `O=C(CC1(O)C(=O)Nc2ccccc21)c1ccc2ccccc2c1` (configuration not stated), inactive: > 100 µM.

`CN(C)C(=S)/N=c1\ss/c(=N\C(=S)N(C)C)n1Cc1ccco1`: the GI50 was inactive: > 100 µM.

In the case of `CCC[C@H](N[S+]([O-])c1ccc(C)cc1)C(C(=O)OCC)=C(c1ccccc1)c1ccccc1` (some centres not stated), the GI50 is inactive: 18.7 µM. For `CCOC(=O)c1cc2c([N+](=O)[O-])c(N)ccc2s1` the value was inactive: > 100 µM; for `O=C1c2ccccc2C(=O)c2c1sc1nc3ccccc3n21`, inactive: 1.89 µM; for `CN1CC2=C(N=C(S)NC2c2ccccc2)/C(=C/c2ccccc2)C1` (configuration not stated), inactive: 97.9 µM. Consider `O=S(=O)(O)c1ccc2c(/N=N/c3ccc(/N=N/c4ccccc4)cc3)c(O)c(S(=O)(=O)O)cc2c1`, for which the GI50 was inactive: > 100 µM.

On to `COc1ccc(/C=N/n2c(Cc3ccccc3)n[nH]c2=O)cc1`, for which the GI50 was inactive: > 100 µM.

With `CCCCCCCCCCCCCCCCCCNC(=O)OCC(CNS(=O)(=O)CCC[n+]1cccc2ccccc21)COC` (configuration not stated), the GI50 is inactive: 6.47 µM. Take `CSc1cnc2ccccc2c1SC1CN(Cc2ccccc2)c2ccccc2C1=O` (configuration not stated): the GI50 is inactive: > 100 µM. For `Clc1cc(Cl)cc(C2SCc3nc4ccccc4n32)c1` (configuration not stated) the value was inactive: 19.4 µM; for `CCOc1ccc(/C(C=O)=C(\Cl)c2ccc(OC)cc2)cc1`, inactive: > 100 µM; for `Cc1c2ccc3ccccc3c2c[n+]2ccccc12`, inactive: 4.65 µM.

As for `COc1ccc2c(C(=O)O)cc3ccccc3c2c1OC`, the GI50 was inactive: 35.1 µM. Consider `CCOC(=O)NC(=O)c1c[nH]c(=O)[nH]c1=O`, for which the GI50 is inactive: > 100 µM. As for `O=C(N[C@H]1CCC[C@H]1C(=O)Nc1ccc(C(F)(F)F)cc1)OCc1ccccc1`, the GI50 is inactive: > 100 µM. In the case of `CCOC(=O)CCC(NC(=O)c1ccc(Oc2nc3ccccc3nc2C(=O)OCC)cc1)C(=O)OCC` (configuration not stated), the GI50 was inactive: > 100 µM. As to `CCNc1ncnc2sc(SCc3ccccc3)nc12`, the GI50 was inactive: > 100 µM. For `C(#Cc1ccccc1)SC1=C(c2ccccc2)S/C(=C(\SC#Cc2ccccc2)c2ccccc2)S1` the value was inactive: > 100 µM; for `Nc1ccc(C(=O)N/C(=C\c2cccc([N+](=O)[O-])c2)c2nc3c(O)nc(S)nc3[nH]2)cc1`, inactive: > 100 µM; for `Brc1ccc2c([C@H]3CN[C@@H](c4c[nH]c5cc(Br)ccc45)CN3)c[nH]c2c1`, inactive: 6.12 µM. As to `Cc1ccc(OP2(=O)Oc3ccc4ccccc4c3CN2c2ccc(Cl)cc2)cc1C` (configuration not stated), the GI50 was inactive: > 100 µM. For `O=C(O)CCS/C(=C\C(SCCC(=O)O)c1ccc(Cl)cc1)c1ccc(Cl)cc1` (configuration not stated) the value was inactive: 48.9 µM. As to `CC(C)=CC(=O)C1c2cccc(O)c2C(=O)c2c(O)cc(C)cc21` (configuration not stated), the GI50 was inactive: 2.25 µM. For `CCN(CC)C(=O)N[C@@H](Cc1ccccc1)C(=O)NC` the value was inactive: > 100 µM; for `CCC1CCN/C(=N/S(=O)(=O)c2cc(C)c(Cl)cc2S)N1` (configuration not stated), inactive: 47.8 µM; for `COc1cc2cc3c4c(cc(OC)c(OC)c4c2cc1OC)CCN3`, inactive: 95.7 µM. For `Cc1ccc(S(=O)(=O)N(CC(O)COc2ccccc2)c2c(F)c(F)cc(F)c2F)cc1` (configuration not stated) the value was inactive: 29.6 µM; for `O=Cc1ccc(-c2cccc([N+](=O)[O-])c2)s1`, inactive: > 100 µM; for `O=[N+]([O-])c1ccc2[nH]c3c(-c4ccccc4)nccc3c2c1`, inactive: 16.7 µM. On to `COc1cc2c(/C=C3/C(=O)Nc4ccc(Cl)cc43)c(Cl)[nH]c2cc1C`, for which the GI50 is inactive: 2.36 µM. Take `Cc1ccc(S(=O)(=O)NCCCSCCO)cc1`: the GI50 is inactive: > 100 µM. Take `CNC(=O)N(C1=NCC(C)S1)c1ccc(C)c(C)c1` (configuration not stated): the GI50 is inactive: 4.78 µM.

On to `Cc1c2c(cc[n+]1C)O[B-](c1ccccc1)(c1ccccc1)O2`, for which the GI50 is inactive: 66.8 µM. Take `Cc1ccccc1NC(=O)C(=O)c1c(O)c2ccc(O)cc2oc1=O`: the GI50 was inactive: > 100 µM. For `COc1ccc2c(c1)/C(=C\c1c(Cl)[nH]c3ccccc13)C(=O)N2` the value was inactive: 5.5 µM; for `Cc1ccccc1C(=O)c1c(O)c2c(c(O)c1Br)CCCC2`, inactive: 19.2 µM; for `c1ccc(CCN(Cc2nc3ccccc3[nH]2)Cc2nc3ccccc3[nH]2)cc1`, inactive: 16.2 µM. For the compound `CCCCCCCCCC(=O)N[C@@H](c1ccco1)[C@@H](O)C(=O)O[C@H]1C[C@@]2(O)[C@@H](OC(=O)c3ccccc3)[C@@H]3[C@]4(OC(C)=O)CO[C@@H]4C[C@H](O)[C@@]3(C)C(=O)[C@H](OC(C)=O)C(=C1C)C2(C)C`, the GI50 was active: 0.813 µM.

Consider `Cc1cc(C)nc(NS(=O)(=O)c2ccc(NC(=O)COC(=O)c3cccc4c(=O)c5ccccc5[nH]c34)cc2)n1`, for which the GI50 is inactive: 25.9 µM. For `CC1=C(C(=O)Nc2ccccc2C)C(c2ccco2)C(C(=O)Nc2ccccc2C)=C(C)N1C` the value was inactive: > 100 µM; for `CCCNCCCCC(NC(C)=O)C(=O)NCc1ccccc1` (configuration not stated), inactive: > 100 µM.

Consider `CC(=O)CC(=O)N1CCSC1=S`, for which the GI50 was inactive: > 10 µM.

`Cc1cc2nc(N3C(=O)/C(=C/Cc4ccco4)N=C3c3ccccc3)sc2cc1C`: the GI50 is inactive: 54.2 µM. For `O=C1c2ccccc2CC1C1(O)C(=O)Nc2c(Cl)cc(Cl)cc21` (configuration not stated), the GI50 was inactive: > 100 µM.

As to `COc1cc(CC2c3cc(OC)c(OC)cc3CCN2C)c(Oc2cc3c(cc2OC)-c2c(OC)c(OC)c(OC)c4c2C(C3)N(C)CC4)cc1OC` (configuration not stated), the GI50 is inactive: > 39.4 µM. For the compound `CCOC(=O)c1nc2cc(C(F)(F)F)ccc2nc1Nc1ccc(OC)cc1`, the GI50 is inactive: 44.7 µM. For `COC(=O)[C@]12CSC[C@H]1C[C@H](c1cccc3ccccc13)N2` the value was inactive: > 100 µM. For `CCCCCCCCCCCCCCCCC1=CC(=O)C=C(OC)C1=O` the value was inactive: > 100 µM. For `N#CC12CC(C=O)=C(N)C1(C#N)CC(C=O)=C2N` (configuration not stated) the value was inactive: > 100 µM; for `Cc1c(N2C(=O)/C(=C/c3ccc(Cl)cc3)N=C2c2ccccc2)c(=O)n(-c2ccccc2)n1C`, inactive: 31.6 µM; for `Clc1ccc(C2ON=C(c3ccccc3)N2C23CC4CC(CC(C4)C2)C3)cc1` (configuration not stated), inactive: > 10 µM. For `CC1=NN(c2cccc(Cl)c2)C(=N/c2nc3ccccc3s2)/C1=C\c1ccc(Cl)cc1`, the GI50 is inactive: 27.3 µM. For `S=c1sc2nc(Cl)nc(Cl)c2s1` the value was inactive: 17.1 µM; for `CN(C)c1nc2n(CCO)c(-c3ccccc3)c(-c3ccccc3)nc-2c(=O)n1`, inactive: > 100 µM; for `Cc1c2ncccc2cc2oc3ccccc3c(=O)c12`, inactive: 58.7 µM.

Consider `O=C1C(=C(C(F)(F)Cl)C(F)(F)Cl)C2CCC1C2` (configuration not stated), for which the GI50 is inactive: > 5.46 µM.

Take `CC(C)=CCC[C@@H](C)/C=C/C=C(\C)C(=O)CC[C@@H]1CC[N@+]2(C)CCCC[C@H]12`: the GI50 was inactive: > 100 µM.

For `CC(=O)/C(=C\c1ccccc1O)C(=O)Nc1ccccc1C`, the GI50 is inactive: 22.4 µM. For `Cc1ccccc1NC(=O)CC(=O)n1nc(-c2ccccc2)c(/N=N/c2ccc([N+](=O)[O-])cc2)c1-c1ccccc1` the value was inactive: 24.9 µM; for `C=C1C(=O)O[C@@H]2OC3(C)CCC4C(C)CCC1C42OO3` (some centres not stated), inactive: 5.92 µM.

In the case of `O=c1c2ccc(S(=O)(=O)c3ccc4c(=O)n5c6ccccc6nc5c5cccc3c45)c3cccc(c32)c2nc3ccccc3n12`, the GI50 is inactive: > 100 µM. For `OC1(c2ccc3ccccc3c2)c2ccc3ccccc3c2C2=NCCN21` (configuration not stated) the value was inactive: > 100 µM; for `COc1ccc(-c2cc(=O)c3ccc(O)cc3o2)cc1OC`, inactive: 26.1 µM. For `C=CCNC(=S)N/N=C1\C(=O)Nc2ccc([N+](=O)[O-])cc21` the value was inactive: 87.9 µM.
